Experiments:
Details in all cases: Flood, 250 g ai/ha; visual rating after 13 to 15 days; scale of 0 to 100 where 0 is no effect and 100 is complete control
[1] = system: ducksalad (Heteranthera limosa); experiment: Test B flooded paddy test, ducksalad
[2] = system: barnyardgrass (Echinochloa crus-galli); experiment: Test B flooded paddy test, barnyardgrass
[3] = system: rice (Oryza sativa); experiment: Test B flooded paddy test, rice
[4] = system: sedge, umbrella (small-flower umbrella sedge, Cyperus difformis); experiment: Test B flooded paddy test, sedge, umbrella

## Cc1cc(F)c(C(=O)N2CCOCC2)cc1NS(=O)(=O)C(F)(F)F [Compound 240]
[1]
  Plant response rating, Ducksalad: 75
[2]
  Plant response rating, Barnyardgrass: 15
[3]
  Plant response rating, Rice: 0
[4]
  Plant response rating, Sedge, Umbrella: 85

## Cc1cc(C)c(C(=O)N2CCC(Cl)CC2)cc1NS(=O)(=O)C(F)(F)F [Compound 242]
[1]
  Plant response rating, Ducksalad: 75
[2]
  Plant response rating, Barnyardgrass: 10
[3]
  Plant response rating, Rice: 10
[4]
  Plant response rating, Sedge, Umbrella: 80

## Cc1cc(C)c(N(S(=O)(=O)C(F)(F)F)S(=O)(=O)C(F)(F)F)cc1C(=O)N1CCC(Cl)CC1 [Compound 243]
[1]
  Plant response rating, Ducksalad: 65
[2]
  Plant response rating, Barnyardgrass: 10
[3]
  Plant response rating, Rice: 0
[4]
  Plant response rating, Sedge, Umbrella: 98

## Cc1cc(Cl)c(NS(=O)(=O)C(F)(F)F)cc1C(=O)N1CCOCC1C (stereo not shown) [Compound 245]
[1]
  Plant response rating, Ducksalad: 70
[2]
  Plant response rating, Barnyardgrass: 45
[3]
  Plant response rating, Rice: 0
[4]
  Plant response rating, Sedge, Umbrella: 75

## COC1CCN(C(=O)c2cc(NS(=O)(=O)C(F)(F)F)c(Cl)cc2C)CC1 [Compound 246]
[1]
  Plant response rating, Ducksalad: 70
[2]
  Plant response rating, Barnyardgrass: 15
[3]
  Plant response rating, Rice: 30
[4]
  Plant response rating, Sedge, Umbrella: 85

## Cc1cc(Cl)c(C(=O)N2CCOCC2)cc1NS(=O)(=O)C(F)(F)F [Compound 248]
[1]
  Plant response rating, Ducksalad: 40
[2]
  Plant response rating, Barnyardgrass: 0
[3]
  Plant response rating, Rice: 0
[4]
  Plant response rating, Sedge, Umbrella: 90

## Cc1cc(Cl)c(C(=O)N2CCOCC2)cc1N(S(=O)(=O)C(F)(F)F)S(=O)(=O)C(F)(F)F [Compound 250]
[1]
  Plant response rating, Ducksalad: 85
[2]
  Plant response rating, Barnyardgrass: 10
[3]
  Plant response rating, Rice: 0
[4]
  Plant response rating, Sedge, Umbrella: 98

## Cc1cc(Cl)c(C(=O)N(C)C)cc1NS(=O)(=O)C(F)(F)F [Compound 251]
[1]
  Plant response rating, Ducksalad: 75
[2]
  Plant response rating, Barnyardgrass: 10
[3]
  Plant response rating, Rice: 10
[4]
  Plant response rating, Sedge, Umbrella: 85

## Cc1cc(Cl)c(C(=O)N2CCCCC2)cc1NS(=O)(=O)C(F)(F)F [Compound 252]
[1]
  Plant response rating, Ducksalad: 85
[2]
  Plant response rating, Barnyardgrass: 10
[3]
  Plant response rating, Rice: 0
[4]
  Plant response rating, Sedge, Umbrella: 95

## Cc1cc(Cl)c(C(=O)N2CCCCC2)cc1N(S(=O)(=O)C(F)(F)F)S(=O)(=O)C(F)(F)F [Compound 253]
[1]
  Plant response rating, Ducksalad: 75
[2]
  Plant response rating, Barnyardgrass: 0
[3]
  Plant response rating, Rice: 0
[4]
  Plant response rating, Sedge, Umbrella: 98

## Cc1cc(Cl)c(C(=O)N(C)C)cc1N(S(=O)(=O)C(F)(F)F)S(=O)(=O)C(F)(F)F [Compound 256]
[1]
  Plant response rating, Ducksalad: 60
[2]
  Plant response rating, Barnyardgrass: 0
[3]
  Plant response rating, Rice: 0
[4]
  Plant response rating, Sedge, Umbrella: 95

## COc1cc(Cl)c(NS(=O)(=O)C(F)(F)F)cc1C(=O)N1CCOCC1 [Compound 258]
[1]
  Plant response rating, Ducksalad: 65
[2]
  Plant response rating, Barnyardgrass: 0
[3]
  Plant response rating, Rice: 0
[4]
  Plant response rating, Sedge, Umbrella: 95

## Cc1ccc(C(=O)N2CCCCC2)cc1NS(=O)(=O)C(F)(F)F [Compound 259]
[1]
  Plant response rating, Ducksalad: 30
[2]
  Plant response rating, Barnyardgrass: 0
[3]
  Plant response rating, Rice: 0
[4]
  Plant response rating, Sedge, Umbrella: 25

## Cc1cc(C)c(C(=O)N2CCC(C)CC2)cc1NS(=O)(=O)C(F)(F)F [Compound 264]
[1]
  Plant response rating, Ducksalad: 85
[2]
  Plant response rating, Barnyardgrass: 0
[3]
  Plant response rating, Rice: 0
[4]
  Plant response rating, Sedge, Umbrella: 90

## CC(=O)N(c1cc(N2CCC3(CCCCC3)C2=O)c(C)cc1C)S(=O)(=O)C(F)(F)F [Compound 265]
[1]
  Plant response rating, Ducksalad: 70
[2]
  Plant response rating, Barnyardgrass: 25
[3]
  Plant response rating, Rice: 0
[4]
  Plant response rating, Sedge, Umbrella: 75

## COC(=O)N(c1cc(N2CCC3(CCCCC3)C2=O)c(C)cc1C)S(=O)(=O)C(F)(F)F [Compound 266]
[1]
  Plant response rating, Ducksalad: 0
[2]
  Plant response rating, Barnyardgrass: 0
[3]
  Plant response rating, Rice: 0
[4]
  Plant response rating, Sedge, Umbrella: 0
